Molecular target: human NGF (aa 1-118) (human)
Assay: crystal structure; NGF:scFv complex, 3.4 Å, space group I4, two full complexes per asymmetric unit
Details: both partners purified

B1: human NGF ([…]) (ligand)
chain: not shown
modifications: non-covalent homodimer. Printed […] counted on the mature protein (offset 121), consistent with the 5JZ7 NGF chain. / non-covalent homodimer. Printed […] counted on the mature protein (offse)
- stoichiometry N: 2

Reference: publication PMC5171805, “Engineering the surface properties of a human monoclonal antibody prevents self-association and rapid clearance in vivo” (Scientific Reports, 2016)
